Laboratory results taken from PubChem BioAssay (NCATS).
The shares of active, inactive and inconclusive entries below differ from those in the screen. Potencies of inconclusive entries are left out as doubtful fits. Active and inactive are the calls of the source. Calls follow the shape of the dose curve; as a rule, active = well fitted inhibition curve with a large enough effect; inconclusive = small, poorly fitted or top-dose-only effect; inactive = no such curve, though single readings can be large or run the other way.

What follows are compounds tested against ATPase family AAA domain-containing protein 5 (Homo sapiens) (UniProt Q96QE3) (assay: HTS assay for small molecules that inhibit ELG1-dependent DNA repair in human embryonic kidney (HEK293T) cells expressing luciferase-tagged ELG1: Hit Confirmation (AID 624248; also: nearly all actives have a fitted effect of over 55% in size)). Conditions: HEK293T ELG1-luciferase levels, luminescence, cells co-treated with 5-fluorouridine; series mostly up to 46.1 µM.
Summary of the method: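 Suppression of ELG1-luciferase signal was read by ONE-Glo luminescence in HEK293T reporter cells after 16 h at 37 C co-treatment with compound and 5-fluorouridine as DNA-damaging agent.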
Potency is read from the fitted curve at half-maximal effect; tags tell the direction and shape of the fitted curve.

Sequence of UniProt Q96QE3 (Q96QE3 whole entry, looked up, the tested form may be a part): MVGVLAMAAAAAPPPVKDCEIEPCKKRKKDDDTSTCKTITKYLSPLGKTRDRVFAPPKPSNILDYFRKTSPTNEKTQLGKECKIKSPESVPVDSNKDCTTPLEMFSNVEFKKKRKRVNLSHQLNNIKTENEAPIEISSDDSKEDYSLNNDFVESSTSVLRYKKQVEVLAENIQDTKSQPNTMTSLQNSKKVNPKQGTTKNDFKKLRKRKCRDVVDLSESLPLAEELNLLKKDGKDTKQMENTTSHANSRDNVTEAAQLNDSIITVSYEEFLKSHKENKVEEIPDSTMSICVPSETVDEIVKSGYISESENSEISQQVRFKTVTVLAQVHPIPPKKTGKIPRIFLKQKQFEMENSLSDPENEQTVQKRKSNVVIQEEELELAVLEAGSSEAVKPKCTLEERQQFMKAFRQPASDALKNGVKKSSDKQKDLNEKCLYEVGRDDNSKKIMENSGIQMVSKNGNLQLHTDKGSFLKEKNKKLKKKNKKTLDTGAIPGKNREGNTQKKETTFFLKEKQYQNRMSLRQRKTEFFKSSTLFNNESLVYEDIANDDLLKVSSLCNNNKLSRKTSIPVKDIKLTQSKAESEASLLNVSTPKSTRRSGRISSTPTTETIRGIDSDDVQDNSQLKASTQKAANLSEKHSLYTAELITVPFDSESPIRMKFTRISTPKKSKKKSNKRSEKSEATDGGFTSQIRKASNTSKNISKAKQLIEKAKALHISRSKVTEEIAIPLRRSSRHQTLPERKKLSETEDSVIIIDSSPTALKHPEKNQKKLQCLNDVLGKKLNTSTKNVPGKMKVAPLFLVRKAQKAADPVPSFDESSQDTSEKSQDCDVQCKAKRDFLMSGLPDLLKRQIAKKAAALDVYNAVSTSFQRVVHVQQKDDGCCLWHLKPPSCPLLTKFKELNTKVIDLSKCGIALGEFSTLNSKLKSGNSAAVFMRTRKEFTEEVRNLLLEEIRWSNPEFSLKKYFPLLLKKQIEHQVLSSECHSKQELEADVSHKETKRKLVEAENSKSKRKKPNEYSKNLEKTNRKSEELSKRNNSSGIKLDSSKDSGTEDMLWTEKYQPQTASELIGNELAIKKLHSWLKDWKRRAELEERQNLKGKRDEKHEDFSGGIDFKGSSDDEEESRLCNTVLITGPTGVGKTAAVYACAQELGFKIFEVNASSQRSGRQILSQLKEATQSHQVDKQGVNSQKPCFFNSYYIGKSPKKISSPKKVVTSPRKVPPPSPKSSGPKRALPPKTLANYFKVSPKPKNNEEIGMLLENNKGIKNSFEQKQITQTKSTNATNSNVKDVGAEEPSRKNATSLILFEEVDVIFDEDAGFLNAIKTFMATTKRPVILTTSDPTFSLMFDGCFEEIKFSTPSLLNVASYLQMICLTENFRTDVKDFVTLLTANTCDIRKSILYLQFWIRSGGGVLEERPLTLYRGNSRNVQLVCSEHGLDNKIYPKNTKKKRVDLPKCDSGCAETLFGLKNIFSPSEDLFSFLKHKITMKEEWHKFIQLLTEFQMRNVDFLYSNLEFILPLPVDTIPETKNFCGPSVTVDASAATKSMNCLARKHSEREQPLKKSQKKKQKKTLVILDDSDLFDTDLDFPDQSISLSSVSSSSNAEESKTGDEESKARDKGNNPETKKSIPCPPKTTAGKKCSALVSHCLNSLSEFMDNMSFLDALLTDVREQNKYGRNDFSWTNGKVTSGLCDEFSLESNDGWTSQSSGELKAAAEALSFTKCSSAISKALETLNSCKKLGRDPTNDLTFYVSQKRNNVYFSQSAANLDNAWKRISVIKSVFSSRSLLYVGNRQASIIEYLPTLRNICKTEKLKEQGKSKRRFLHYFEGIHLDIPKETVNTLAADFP

| SMILES | Potency |
| --- | --- |
| Cc1ccc(Cn2ccc(NC(=O)c3nn(C)cc3[N+](=O)[O-])n2)cc1 | inconclusive [inhibitor, full curve] |
| Cc1cc(C)c(Cc2c(C)nc3c(C(=O)NCc4ccco4)cnn3c2C)c(C)c1 | inconclusive [inhibitor, partial curve] |
| O=C(c1cc(COc2ccc3ncccc3c2)on1)N1CCCC1 | inactive |
| COc1ccc(NS(=O)(=O)c2cccc(C(=O)OCC(=O)N3CCN(c4ccc(OC)cc4)CC3)c2)cc1 | inconclusive [inhibitor, partial curve] |
| COc1ccc(CNc2ncnc3sccc23)cc1 | inconclusive [inhibitor, partial curve, poor fit] |
| Cc1c(C(C)C)c(=O)n(-c2ccc(S(=O)(=O)NCc3ccccc3)cc2)n1C | inconclusive [inhibitor, partial curve] |
| CN(CC(=O)Nc1ccccc1Br)C(=O)c1ccc(-c2ccc(Cl)cc2)o1 | inconclusive [inhibitor, single point] |
| Cn1cccc1/C=N\NC(=O)Cc1ccc(Br)c2ccccc12 | inconclusive [inhibitor, partial curve, poor fit] |
